# In all, about 310,000 compounds went through this assay and about 2,200 (0.71%) showed an effect of 50% or more. The effect is printed as a negative number. This is one part of the list.
# Molecular target: human ether-à-go-go-related gene (hERG) potassium channel (human, UniProt Q12809)
# Assay: primary screen, population patch clamp on CHO cells stably expressing hERG
# Chain of human ether-à-go-go-related gene (hERG) potassium channel (Q12809 whole entry, looked up): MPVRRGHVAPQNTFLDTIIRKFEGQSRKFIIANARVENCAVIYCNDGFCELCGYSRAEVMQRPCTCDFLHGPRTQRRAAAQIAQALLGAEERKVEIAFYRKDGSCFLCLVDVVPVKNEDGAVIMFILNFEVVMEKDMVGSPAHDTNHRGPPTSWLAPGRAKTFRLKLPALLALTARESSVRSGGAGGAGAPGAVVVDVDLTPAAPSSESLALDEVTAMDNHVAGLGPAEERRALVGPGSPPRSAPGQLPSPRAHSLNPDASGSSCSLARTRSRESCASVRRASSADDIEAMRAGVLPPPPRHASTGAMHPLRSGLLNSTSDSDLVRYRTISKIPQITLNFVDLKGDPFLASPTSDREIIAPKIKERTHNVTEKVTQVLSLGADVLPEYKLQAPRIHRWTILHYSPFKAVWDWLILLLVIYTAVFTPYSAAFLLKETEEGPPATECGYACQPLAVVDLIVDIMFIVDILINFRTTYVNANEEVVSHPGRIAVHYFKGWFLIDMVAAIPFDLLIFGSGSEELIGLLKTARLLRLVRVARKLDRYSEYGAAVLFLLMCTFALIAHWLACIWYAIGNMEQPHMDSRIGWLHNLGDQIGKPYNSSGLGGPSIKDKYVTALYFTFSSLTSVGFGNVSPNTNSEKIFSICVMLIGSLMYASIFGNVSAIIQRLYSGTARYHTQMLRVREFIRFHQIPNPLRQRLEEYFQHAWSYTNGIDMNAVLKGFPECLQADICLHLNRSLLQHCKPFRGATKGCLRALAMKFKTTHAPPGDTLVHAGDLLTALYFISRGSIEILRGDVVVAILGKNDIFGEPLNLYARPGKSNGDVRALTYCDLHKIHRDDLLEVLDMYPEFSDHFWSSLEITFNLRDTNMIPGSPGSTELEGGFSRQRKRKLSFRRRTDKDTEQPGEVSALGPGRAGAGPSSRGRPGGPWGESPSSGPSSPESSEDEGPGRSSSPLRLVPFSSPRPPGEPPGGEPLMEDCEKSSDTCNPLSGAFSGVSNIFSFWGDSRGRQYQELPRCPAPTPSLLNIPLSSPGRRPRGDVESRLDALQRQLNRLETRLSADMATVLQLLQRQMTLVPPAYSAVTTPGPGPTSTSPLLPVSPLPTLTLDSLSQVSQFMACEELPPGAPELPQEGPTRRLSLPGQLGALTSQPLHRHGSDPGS
row,Structure (SMILES),"hERG current change (%, negative = inhibition) at 1uM"
1,CC1=C(C(=O)OCC(Cl)(Cl)Cl)N2C(=O)C(NC(=O)Cc3ccccc3)C2SC1 (stereo not shown),2.34%
2,CC1CCN(S(=O)(=O)c2ccc(C(=O)NCc3cccnc3)cc2)CC1,10.4%
3,CCOC(=O)c1sc2nc(C)nc(Nc3ccc(OC)cc3)c2c1C,2.77%
4,Cc1ccnc(NS(=O)(=O)c2ccc(NC(=O)CCOc3ccccc3)cc2)n1,12.9%
5,Cc1nn(C)c(Nc2ccc(Br)cc2)c1Br,12.5%
6,CCN(CC)c1nc2n(c(=S)n1)CCS2,11.9%
7,COc1cccc(NC(=O)CN(C)C(=O)/C=C/c2cn(-c3ccccc3)nc2-c2ccc(C)cc2)c1,7.92%
8,COC(=O)c1ccccc1NC(=O)N1CCN(S(C)(=O)=O)CC1,15.9%
9,CC(C)CC[n+]1ccn(-c2nc3ccccc3nc2[N-]S(=O)(=O)c2ccccc2)c1,13.3%
10,O=C(Cn1nnc(-c2cccs2)n1)NCCc1ccccc1,9.34%
11,O=C(NCc1ccccc1)c1csc2c1CCCC2,12.7%
12,O=C(c1ccc(F)cc1)N1CCC(N2CCOCC2)CC1,3.28%
13,CC(=O)C1C(c2cccc([N+](=O)[O-])c2)C2C(C)=NN=C2CC1(C)O (stereo not shown),9.51%
14,Cc1ccc(S(=O)(=O)N(CC(=O)NCC2CCCO2)C2CCCCC2)cc1 (stereo not shown),10.6%
15,COc1ccc(Nc2nc3c(C)cccc3cc2C#N)c(OC)c1,7.17%
16,COc1ccc(C2c3[nH]c4ccccc4c3C[C@H]3C(=O)N(c4ccccc4C(=O)NCCN4CCOCC4)C(=O)N23)cc1 (stereo partly shown),-3.64%
17,CC(=O)NC(Cc1ccccc1C)C(=O)NC1CCN(C(=O)c2ccc(C)cc2)CC1 (stereo not shown),-3.02%
18,OC(CN1CCN(Cc2ccccc2)CC1)c1ccccc1 (stereo not shown),0.933%
19,Cc1cc(C)c2c(CC(=O)NCCc3ccccc3)coc2c1,14.2%
20,COc1ccc(Cn2c(N)c(S(=O)(=O)c3cccs3)c3nc4ccccc4nc32)cc1,2.37%
21,CCCCn1c(N)c(N(CCC(C)C)C(=O)C2CCCC2)c(=O)[nH]c1=O,9.14%
22,CSc1snnc1-c1ccccc1,8.38%

row,Structure (SMILES),"hERG current change (%, negative = inhibition) at 1uM"
1,Cn1nc(C(F)(F)F)c(-c2ccccc2)c1NC(=O)c1nccnc1C(=O)O,15.6%
2,CCCCCCSc1cc(-c2nc3cc(C)ccn3c2NC2CCCCC2)ccc1OC.O=C(O)C(F)(F)F,7.1%
3,Cc1ccc(C)c(Cn2nc(-c3cc(C)ccc3C)ccc2=O)c1,13.9%
4,CC(C)NC(=O)c1ccccc1NC(=O)/C=C/c1ccc([N+](=O)[O-])cc1,-1.61%
5,CC(C)(C)OC(=O)NCCCCCNC(=O)c1[nH]cnc1C(=O)Nc1cccc(Cl)c1,12.4%
6,S=C(NCCSCc1ccccc1Cl)Nc1ccccc1,-6.53%
7,CCCCCn1c(-c2ccco2)nc2nc3ccccc3nc21,-2.57%
8,COc1ccc(NC(=O)c2cc3c(Cl)nc4ccccc4c3s2)cc1OC,15.2%
9,Br.Cc1ccccc1OCC(=O)NN1Cc2ccccc2C1=N,8.9%
10,CC1(c2nnc(-c3cccc(Cl)c3)o2)CC(c2cccnc2)=NO1 (stereo not shown),9.7%
11,Cc1csc(NC(=O)CSc2nnc(-c3ccoc3C)n2CCc2ccccc2)n1,-16.3%
12,CCOC(=O)C1=C(O)CSC1=Nc1ccc(C)cc1,3.39%
13,CCC(C)(C)n1nnnc1C(c1cc(OC)c(OC)c(OC)c1)N1CCN(c2ccccc2)CC1 (stereo not shown),-3.23%
14,Cn1sc(=O)c2cc(S(=O)(=O)NC3CC3)ccc21,-6.77%
15,Nc1cccc(C#Cc2ccc3c(=O)c4ccccc4oc3c2)c1,14%
16,CC(=O)N1CCN(CC(=O)Nc2ccccc2C(=O)NCc2ccc(C)cc2)CC1,-1.17%
17,c1cnc(NCCNc2ncccn2)nc1,5.01%
18,NNC(=O)CNc1cccc(Br)c1,12.1%
19,COc1ccc(C)cc1S(=O)(=O)N1CCN(C(=O)c2ncoc2-c2cccc(F)c2)CC1,16.9%
20,N#Cc1c(NC(=O)C2CC=CCC2C(=O)O)sc2c1CCCCCC2 (stereo not shown),11.3%
21,COc1ccc(-n2ncc3c(N4CCN(Cc5ccccc5)CC4)ncnc32)cc1,7.99%
22,Cc1scc(C(=O)N/N=C/c2ccc(Cl)s2)c1C,12.9%

row,Structure (SMILES),"hERG current change (%, negative = inhibition) at 1uM"
1,CCn1c(=O)c(C(=O)NNS(=O)(=O)c2ccc(Cl)cc2)c(O)c2ccccc21,10.1%
2,O=C(Nc1nnc(C2CC2)s1)c1ccco1,4.84%
3,CCN(CC)c1ccc(C(=O)N/N=C/c2ccccc2OC(F)F)cc1,10.3%
4,COc1ccc(Br)cc1CN1CCCCCC1,5.54%
5,O=C(C1CCCC1)N1CCC(CC2CC(c3cccc(Br)c3)=NO2)(C(=O)NCC2CCCCC2)CC1 (stereo not shown),-5.33%
6,O=C(CN1CCN(S(=O)(=O)c2ccc(Br)cc2)CC1)N/N=C/c1ccc(Cl)c([N+](=O)[O-])c1,2.32%
7,COC(=O)c1ccccc1NC(=O)CCC(=O)N1CCSc2ccccc21,-0.876%
8,O=C(Nc1ccccc1)N1CCc2c([nH]c3ccccc23)C1C(F)(F)F (stereo not shown),4.72%
9,CCC1(CC)NC(=O)N(Cc2nc3ccccc3s2)C1=O,5.36%
10,Cc1ccc2c(c1)nnn2C1CCN(CC(=O)Nc2ccccc2N2CCOCC2)CC1,-39.2%
11,C=CCOc1cccc(C2/C(=C(/O)c3ccc(Cl)cc3)C(=O)C(=O)N2CCN2CCOCC2)c1 (stereo not shown),1.42%
12,Cc1ccc(NC(=O)C2CCN(S(C)(=O)=O)CC2)cc1C,18.7%
13,COc1cc2[nH]c3c(N4CCN(c5ccc(Cl)cc5)CC4)ncnc3c2cc1OC,-1.81%
14,COC(=O)c1ccccc1NC(=S)NC(NC(=O)c1ccccc1[N+](=O)[O-])C(Cl)(Cl)Cl (stereo not shown),5.77%
15,C/C(CC(=O)NCCCN1CCOCC1)=N\NC(=O)COc1ccc(C)cc1,16%
16,COc1ccc(Sc2ncnc3onc(C)c23)cc1,9.3%
17,Cc1cccnc1Nc1ncnc(N)c1[N+](=O)[O-],1.35%
18,O=C(O)CN1C(=O)/C(=C\C(Br)=C\c2ccccc2)SC1=S,8.17%
19,Nc1nc(SCc2ccccc2)n[nH]1,7.43%
20,Cc1cc(=O)[nH]c(SCC(=O)NNC(=O)Cc2ccccc2)n1,7.26%
21,Cc1cc(=O)[nH]c(N/N=C/c2cn(CCC#N)nc2-c2ccccc2)n1,9.56%
22,CC(C)(O)C#Cc1ccc(CN2CCN(C3CCCCC3)C(CCO)C2)s1 (stereo not shown),19%

row,Structure (SMILES),"hERG current change (%, negative = inhibition) at 1uM"
1,COc1cccc(-c2nc(=S)c3c(n2CCCO)CCCC3)c1,6.81%
2,COc1cc(C(=O)NCCCCc2ccccc2)cc(OC)c1OC,10.5%
3,CCCc1cc(=O)[nH]c(SCC(=O)N(C)C2CCCCC2)n1,13.3%
4,C=CCn1c(=O)c(C(=O)Nc2ccc(C)cc2)c(O)c2ccccc21,15.6%
5,CC(C)CN(C(=O)COC(=O)c1ccc([N+](=O)[O-])o1)C1CCS(=O)(=O)C1 (stereo not shown),-1.06%
6,COc1ccc2c(CC(=O)OCC(=O)Nc3cccc(S(N)(=O)=O)c3)coc2c1,11.9%
7,COc1cc(C)ccc1Oc1nc(-c2ccccc2O)nc2ccccc12,14.9%
8,Cc1ccc(C(=O)N[C@H](C(=O)OCc2nnc(-c3ccccc3)o2)C(C)C)cc1,3.79%
9,CCn1c(SCc2ccc(F)cc2)nc2c(c1=O)SCC2,11.5%
10,COc1ccc(-c2cc(C(=O)N3CCN(c4ccccc4)CC3)c3ccccc3n2)cc1,8.46%
11,Cc1cc(-n2c(C)cc(C(=O)CN3C(=O)NC4(CCCCC4C)C3=O)c2C)no1 (stereo not shown),-7.92%
12,COc1ccc(CCNC(=O)c2cc(=O)c3ccc(C)cc3o2)cc1OC,6.43%
13,Cc1sc(NC(=O)C2CCCO2)c(C#N)c1C (stereo not shown),12%
14,CC1CN(C2CCN(C(=O)c3ccccc3Cl)CC2)CC(C)O1 (stereo not shown),-0.954%
15,COc1cccc(CN(CC2CCCO2)C(=O)c2cc3ccccc3oc2=O)c1 (stereo not shown),14%
16,COc1ccc(-c2cccc(NS(=O)(=O)c3cc([N+](=O)[O-])ccc3C)c2)nn1,14.7%
17,NC(=O)c1c(NC(=O)C(=O)N2CCOCC2)sc2c1CCC2,9.56%
18,O=C(O)CCc1nn2c3ccccc3n(Cc3ccccc3)c2nc1=O,16%
19,Cc1ccc(C(=O)Nc2ncccc2O)o1,20.9%
20,O=[N+]([O-])c1ccc(NCc2ccc3c(c2)OCO3)cc1,25.6%
21,O=C(Nc1ccc(C(=O)O)cc1)/C(=C\c1ccco1)NC(=O)c1ccccc1Cl,8.82%
22,O=c1c2cc(NC(=S)N3CCCC3)ccc2nc2n1CCCCC2,3.46%

# Reference: article PMC4336329 (PLoS ONE, 2015)
